# Data: the supplement of paper PMC11417369
# ± gives the standard deviation of the averaged measurements. This is one part of the list.
# System: PfAP2-G AP2 domain (GST-tagged)
# Test: gcPBM binding intensity (ln(normalized median fluorescence intensity)); higher = stronger DNA binding
# How it was run: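 Each value is the highest Masliner-normalised natural-log median intensity across replicate spots of either orientation of a probe. The probes were primer-extended double-stranded 36-bp intergenic genomic sequences on an Agilent 4 × 180k array, alongside negative controls, exposed for 1 h to GST-tagged P. falciparum DNA-binding domains expressed in E. coli. Bound protein was picked up with Alexa488 anti-GST antibody and scanned at 488 nm.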
row,Sequence,gcPBM binding intensity (ln)
1,TTTTTTCTTTTCAAGGTGCTTTATAAGAAAAAGGGA [GTGCAC_site9858],10.1 ± 0.38
2,AAAAAAAAAAAAAACACACACACACCCAAATACATA [CACACA_site708],10.3 ± 0.15
3,CAATTACGCAGGAATGCACACAATAATAAAAAAAAT [CACACA_site3513],10.07 ± 0.085
4,AAAAAAAAAAAAAAAACACACATATATGTATATATA [CACACA_site3276],10 ± 0.27
5,ATATATATATATATATGTACATATTTTTTATTTTAT [XGTACX_site5761],11.2 ± 0.73
6,TTTCAAAAAGGAAGAAAAAAAAAAAAAAAAAATATA [XGTACX_negctrl_site514],9.46 ± 0.15
7,TCCCCCTTTTTTTGATTTTTATCTTAATTCTAAAAG [GTGCAC_negctrl_site541],10.4 ± 0.35
8,TATTATTCAAATAAAAGAAAAATATATATATTATAT [GTGCAC_negctrl_site273],9.51 ± 0.34
9,ATATGTTACTTTACATAAAGAAGAAGAAGAAGAAAA [CACACA_negctrl_site985],9.805 ± 0.064
10,AAGCTTCATTAATATACACACATATATGTGTATATT [CACACA_site7693],9.87 ± 0.12
11,AAGGTATGATTAATCACACACATAAATATAAATACA [CACACA_site5464],9.845 ± 0.092
12,AATAAAGAAGAAGAAAGTACACATTTCACAAAGGGG [XGTACX_site1308],11.5 ± 0.9
13,GATATATGTATAATAACGCACACTACAAAAATAAAA [CACACA_site2100],10.3 ± 0.33
14,ATAAAATATAGGTATGCACACACATATACTTCTGTG [CACACA_site8398],10.315 ± 0.007
15,TATATAATACGAATTTGTACATATTAAATAAATTAT [XGTACX_site93],10.8 ± 0.61
16,GTTAGTTTTAGTTCATGTACATAATAGAAAATATAT [XGTACX_site7125],11.4 ± 0.91
17,CTCATATATAACACATGTACACAGATTTTGCAAATG [XGTACX_site6879],11.4 ± 0.88
18,TTTTTTTTTTTTTTTTTACACACTGCATACAAGAAA [CACACA_site3026],10 ± 0.5
19,GTCTGCATATGGATACGTACACATATATATTAATGT [XGTACX_site2260],11.7 ± 0.91
20,GGGAAAAAATGAGGTCGTACATTTTTCATCACAAAT [XGTACX_site8920],11.4 ± 0.86
21,AAACTATACCAAAACACACATACAAAATATAAAAAA [CACACA_site2707],10.1 ± 0.16
22,ATTTTCAAATTATCAGATGAATCTTTTTAAGATCTT [XGTACX_negctrl_site598],9.45 ± 0.26
23,AATGAATGTACATACGCATGTACTTGACTAAATTAT [TGCATGCA_site436],11.4 ± 0.86

row,Sequence,gcPBM binding intensity (ln)
1,CAAGAAACAGTGATACGTACACATATATATATATAT [XGTACX_site3229],11.6 ± 0.79
2,TTCAAATAAATAGTAGTGCATATTTATTAATGTAAA,10.1 ± 0.13
3,ATTAAAGAGAGACATCAACACACATACGTATGTATA [CACACA_site8393],9.89 ± 0.11
4,TGGTAATACCCATACACACACACATACCCATATATA [CACACA_site5509],10.3 ± 0.21
5,ATAAATAAAACAACAGTGCAATAAAATTAGTTGAGG,9.86 ± 0.26
6,TTTTTTATGAGGTGGTGTACTTTTTTTTTTTTCTTT [XGTACX_site8550],11.7 ± 0.97
7,TATTTTTTAAAAAAACGTACAAACATAATAAAAATA [XGTACX_site1857],11.5 ± 1.1
8,TATATATATATATATGTGCACATTTTATTAAAATGT,10.4 ± 0.34
9,ATAGACATTTTACTTTGTACATATAAACATATATAT [XGTACX_site2733],10.8 ± 0.3
10,ATATGAAACATGAAGGTGCATAATGTGTATATTTAT,10.2 ± 0.2
11,ACATAAATATATTTTTCACACATCATTAGTTATGAA [CACACA_site4724],9.84 ± 0.071
12,TAATATATTATAAACACATGCACATTAATAATAACT [TGCATGCA_site708],9.91 ± 0.071
13,AATTAATGGGTACATACACACATATATACATACATA [CACACA_site742],11.4 ± 1
14,AATTAAATGTTTCTAAGATATACGACCAATGTATTT [CACACA_negctrl_site1694],10.7 ± 0.47
15,TGTATTATCTCTTATGAACACACATTTTTATTTTCA [CACACA_site9107],9.95 ± 0.014
16,ATGTTAATTAATGAGGTGCATTGAATATTTCAATAA,9.99 ± 0.21
17,CATCAATGCTAATTATGTACTTACATAAATAACCCT [XGTACX_site968],11.2 ± 0.81
18,ATACCTAAAAAATATACACACATATATATAAATATA [CACACA_site2580],9.805 ± 0.064
19,ATGATCTGTTTGTTTGTGCACATATATATATATTAA,10.7 ± 0.38
20,TGGTGAAAAATATAAATATAAATAAATATATATATA [CACACA_negctrl_site1725],9.57 ± 0.54
21,AGAAGAAAACAAAACACACACATATATCTTAATATA [CACACA_site2231],9.76 ± 0.15
22,AAAAAAAAAAACTTTGCATGTAATAATAAAAAAAAA [TGCATGCA_site81],9.845 ± 0.064
23,ATGTAGAGTAATAGTTGTACAAGGTGTATATCTCAT [XGTACX_site6370],11.4 ± 0.79

row,Sequence,gcPBM binding intensity (ln)
1,TTTATATTTTTTTTTGCACACTTTAAAAAAATATAT [CACACA_site1146],10.1 ± 0.32
2,TATATATTACATAAAACACACAAAAAAAAAATTAAA [CACACA_site3882],9.79 ± 0.12
3,GAATATTTATGATGAACTATTAATTAATTTTACATA [GTGCAC_negctrl_site353],9.68 ± 0.085
4,AAATAAATTGAAGATACATGCATATTTTTTTTTTAT [TGCATGCA_site686],9.63 ± 0.19
5,ATGTCTTAAAAATTAAAACACACGTTCACTTTCATA [CACACA_site3385],9.88 ± 0.15
6,AGATCATAATATTATACACACATTAGATATAGGTAA [CACACA_site6809],9.8 ± 0.2
7,AGAGTTAAACGATATATATAAATATATATATATATA [GTGCAC_negctrl_site316],9.7 ± 0.49
8,AAAAAAAAAAACGACAGTACAATTATAATTTATATT [XGTACX_site2365],10.5 ± 0.26
9,AAAAATTATAAAAAACAAATATTAAATAATTATTAA [GTGCAC_negctrl_site125],9.51 ± 0.21
10,TTGATGGGAAAAAACTTTTTTTTCTTTTTTTCTTTC [CACACA_negctrl_site328],9.41 ± 0.32
11,TTTTTTTTTTTTTTTTTTTTTTTGCTCAGTGTGGTA [CACACA_negctrl_site29],9.95 ± 0.56
12,AAATGTAATTTGTCTTTTATTTATATTTGACATGAT [TGCATGCA_negctrl_site520],9.62 ± 0.11
13,ATATTAATGATATATACACACATAAGTATTGTATAT [CACACA_site7844],9.89 ± 0.13
14,TTATACTAAATGAACACACACACATATATATATATA [CACACA_site99],10.4 ± 0.64
15,TATCACCCACCATGAAGTACATATTACCATTTGATG [XGTACX_site845],11.3 ± 0.82
16,ATAAATAAATAAAAGCGTACATATATATAAAATATA [XGTACX_site8107],11.6 ± 0.88
17,AAAAGGAAGATATATACACACATACAAATATTTATA [CACACA_site7093],9.895 ± 0.064
18,AAAAAAAAAAAAAAAAGTACATATATATATTTATAT [XGTACX_site5893],11.7 ± 1
19,TATATATATATATAATGTACTTATATTTTTTTGAGG [XGTACX_site2638],11.2 ± 0.79
20,ATATGTATAAGTATGTATATTTATTTATACTTATGT [GTGCAC_negctrl_site221],10.1 ± 0.2
21,TTAATTAAAACGAATACACACATAAATATGTAAAAG [CACACA_site6707],10.16 ± 0.042
22,TATATGGTATGTATTACACACATATCACATATAGAT [CACACA_site7426],9.94 ± 0.099
23,TTTTAAATTTAATTTACACACTTTTCATAGCATTGA [CACACA_site3794],9.9 ± 0.042

row,Sequence,gcPBM binding intensity (ln)
1,TTCTATTCACATTTTACACACGTCCATCGCATTTTA [CACACA_site3453],10.6 ± 0.2
2,TTATATTTATAAAATTGTATACCCCTTCTAACTTTC [CACACA_negctrl_site250],10.2 ± 0.23
3,ATTGTGCTCATCAGCACACACAACATCATGTAATAA [CACACA_site1863],10.2 ± 0.38
4,TATATATATGGTTTAACACACGAGATAAAAGTATAT [CACACA_site2867],10.08 ± 0.042
5,ACAGACGTTCAAAGGTGTACGCAAAATGAATAATAT [XGTACX_site7565],11.6 ± 1
6,GTAAATCGACACATACGTACATACATTTATATATAT [XGTACX_site3143],11.4 ± 0.94
7,AAAAAAAAGAAAAACACACACATATATATATATAAT [CACACA_site4707],9.72 ± 0.042
8,ACATTTAATGTTATATGTACATAATATTATAAGTAT [XGTACX_site1393],11.2 ± 0.64
9,CATATGGCAATAATTACATGCAAAAAAAAAAAAAAA [TGCATGCA_site578],9.82 ± 0.63
10,AATGTAAAAGTAAACACACACATATATTTATACATA [CACACA_site7218],10.1 ± 0.13
11,AGCCATATCTTTTTTGCACACACTACAATAAAACAA [CACACA_site1650],10.4 ± 0.29
12,TTCTTATTTAATGTATCACACACGAGAATAAAAAAT [CACACA_site8992],10.3 ± 0.35
13,TATACATATATATATTGTACATATTATATATATATA [XGTACX_site3286],10.9 ± 0.56
14,ATATATATATATATATGTACATATTGTATCTTATAC [XGTACX_site5466],11.2 ± 0.61
15,ACATTATATTTGGACTGTACTAATATATTGTTATAT [XGTACX_site5573],11.4 ± 0.81
16,AAAAACCATTGGCACACACACATAATATATAATATA [CACACA_site4903],10.2 ± 0.3
17,AAGAAAGGTTAAACATGTACATAAATATTTTACATA [XGTACX_site5024],11.2 ± 0.72
18,TTATATTTAGTATATGCACACTTTATGTTTGTTATT [CACACA_site5163],9.955 ± 0.035
19,TATAAATACGAACACACACACCTTATAATTACTACT [CACACA_site7827],10.18 ± 0.085
20,TCTTGTTTATCAACAGCACACACAACAACAACAACA [CACACA_site8046],10.1 ± 0.23
